Over roughly 18,000 sequences, “TetR repression strength (sort-seq, GFP reporter)” has its median near 0.23; the highest 2% begin near 0.68. This is one part of the list.
Each sequence was assayed against TetR (class B, Tn10) (UniProt P04483) (assay: TetR repression strength (sort-seq, GFP reporter) (relative to tetO2 = 1); higher = stronger repression). Settings: E. coli.
Summary of the method: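 Three independent transformations of E. coli SIG10-MAX were made with a low-copy plasmid library randomizing eight operator positions between a constitutive promoter and sfGFP, with constitutive TetR. Following 5 h at 37 °C in LB plus 50 µg/mL chloramphenicol, 10^6 cells went through FACS into 13 fluorescence bins, and each bin was sequenced by Illumina. Repression strength was defined as the top bin index plus one minus the read-weighted mean bin, divided by the unaltered operator's value. Averages included only members reaching ≥30 reads in all replicates with a CV ≤0.5.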

UniProt P04483, sequence (P04483 whole entry): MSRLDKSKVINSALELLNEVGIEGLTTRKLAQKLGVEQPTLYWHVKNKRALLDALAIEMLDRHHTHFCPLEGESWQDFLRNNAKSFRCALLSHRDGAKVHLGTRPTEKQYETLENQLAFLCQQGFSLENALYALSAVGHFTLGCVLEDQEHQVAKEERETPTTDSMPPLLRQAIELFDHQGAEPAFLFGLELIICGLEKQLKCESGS

| Sequence | TetR repression strength |
| --- | --- |
| TCCCAGACAGTGGAAGAGA | 0.107 |
| TCCCATCGAGTGGCTGAGA | 0.294 |
| TCCCTGGGAGTAATTGAGA | 0.294 |
| TCCCGCGGAGTCCACGAGA | 0.235 |
| TCCCGCTAAGTACTCGAGA | 0.0895 |
| TCCCGAAGAGTTGTCGAGA | 0.35 |
| TCCCCTACAGTACGGGAGA | 0.225 |
| TCCCTTGCAGTGTAAGAGA | 0.524 |
| TCCCAGCCAGTCCGGGAGA | 0.371 |
| TCCCAAGCAGTGACAGAGA | 0.432 |
| TCCCCATGAGTACCTGAGA | 0.264 |
| TCCCCAGTAGTAGGTGAGA | 0 |
| TCCCTACGAGTCGGGGAGA | 0.193 |
| TCCCCTTAAGTTAAGGAGA | 0.173 |
| TCCCCTAAAGTGCGCGAGA | 0.266 |
| TCCCGCGGAGTCTGCGAGA | 0.191 |
| TCCCCCTCAGTTCATGAGA | 0.305 |
| TCCCCGGGAGTGAAAGAGA | 0.324 |
| TCCCTTGTAGTAATGGAGA | 0.273 |
| TCCCTTAGAGTCGTGGAGA | 0.168 |
| TCCCAGGGAGTCAAGGAGA | 0.157 |
| TCCCAGTCAGTGCCAGAGA | 0.168 |
| TCCCTACCAGTGTTTGAGA | 0.396 |
| TCCCAACAAGTCGCAGAGA | 0.281 |
| TCCCGCTTAGTCTCGGAGA | 0.187 |
| TCCCTATCAGTGGAAGAGA | 0.722 |

| Sequence | TetR repression strength |
| --- | --- |
| TCCCCCATAGTGCGCGAGA | 0.219 |
| TCCCCCGCAGTACGAGAGA | 0.467 |
| TCCCTGCCAGTTCGTGAGA | 0.128 |
| TCCCACCTAGTGGTGGAGA | 0.406 |
| TCCCGTTCAGTAGTGGAGA | 0.169 |
| TCCCTATAAGTATTAGAGA | 0.419 |
| TCCCCGCCAGTTCATGAGA | 0.174 |
| TCCCTTAAAGTGTCGGAGA | 0.46 |
| TCCCTCTTAGTCCCGGAGA | 0.4 |
| TCCCGTGGAGTTTGTGAGA | 0.352 |
| TCCCTCGGAGTTGTCGAGA | 0.237 |
| TCCCTCCAAGTGTAGGAGA | 0.056 |
| TCCCAATTAGTCCTCGAGA | 0.326 |
| TCCCGAGTAGTATGCGAGA | 0.0845 |
| TCCCGGTGAGTTAAAGAGA | 0.246 |
| TCCCTGTCAGTACAGGAGA | 0.118 |
| TCCCGCGGAGTGACTGAGA | 0.275 |
| TCCCAAAGAGTAGAGGAGA | 0.346 |
| TCCCTGTAAGTGTACGAGA | 0.466 |
| TCCCCCAGAGTCCGCGAGA | 0.434 |
| TCCCTTTTAGTTGTCGAGA | 0.369 |
| TCCCATCGAGTGTAGGAGA | 0.0954 |
| TCCCCGAAAGTGGGGGAGA | 0.257 |
| TCCCTAACAGTTTCTGAGA | 0.253 |
| TCCCAGGAAGTAGGCGAGA | 0.191 |
